Measured values as given in PubChem BioAssay AID1508624 (National Center for Advancing Translational Sciences (NCATS), 2021).
Out of some 48,000 compounds screened, about 120 (0.25%) were called active. Not shown: some 4% with an inconclusive outcome. Calls follow the shape of the dose curve; as a rule, active = well fitted activation curve with a large enough effect; inconclusive = small, poorly fitted or top-dose-only effect, or another doubt; inactive = no such curve, though single readings can be large or run the other way. Some of the results follow.

Assay: Primary qHTS for Identification of Small Molecule Activators of Huntingtin-Antisense Promoter Activity; also: nearly all actives have a fitted effect of over 55% in size
Conditions: HEK293 HTT-AS promoter firefly luciferase reporter (activity 0% = vehicle and -100% = no light), 24 h; series mostly up to 57.5 µM; activity change, positive = activation: at the top concentration
Outline: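 HEK293 luciferase promoter-reporter cells (2,500/well) plated 24 h, then compounds added at up to 57.5 uM final for 24 h at 37 °C. Firefly luminescence by Dual-Glo, normalized to vehicle (0%) and zero RLU (-100%).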

Activity change, positive = activation, inactive:
COc1cc(NC(=O)c2cnc3c(-c4ccc(F)cc4)c(C)nn3c2C)cc(OC)c1 -29.6%
Cc1ccc(Sc2c(C(=O)NCc3ccccc3C)[nH]c3ccccc23)cc1 6.96%
Nc1ncnc2c1c(-c1cccc(OCc3ccccc3)c1)cn2C1CC(CN2CCCC2)C1 (stereo not given) -11.9%
Cc1ccc(-c2nc3ccc(Cl)cn3c2Nc2ccc3c(c2)OCCO3)s1 28.9%
CCN(CC)S(=O)(=O)c1ccc2oc(C(=O)Nc3ccc(Br)cc3F)c(C)c2c1 2.93%
COc1ccc(CNC(=O)CN2C(=O)CCCc3ccccc32)cc1 4.15%
COc1ccc(CCNC(=O)CCc2c(C)c3cc4c(C)c(C)oc4cc3oc2=O)cc1 0.0312%
COc1ccc(NC(=O)CC(C)n2nc(C)cc2C)cc1Cl (stereo not given) -7.64%
CCOc1ccc(CCNC(=O)Cn2ncn3c(cc4ccccc43)c2=O)cc1OCC 0.473%
CCn1c(C(=O)Nc2cc(Cl)ccc2C)cc2sc(Cl)cc21 -15.9%
CCCOc1ccc(CN(C(=O)c2nc(SC(C)C)ncc2Cl)C2CCS(=O)(=O)C2)cc1 (stereo not given) -10.8%
CCOc1ccc(/C=C/c2nc(C#N)c(Nc3ccc(OC)cc3)o2)cc1 1.33%
N#Cc1ccccc1Cn1c(=O)n(Cc2ccc(C(=O)NC3CCN(Cc4ccccc4)CC3)cc2)c(=O)c2ccccc21 -16.6%
Fc1ccc(-c2ccc(CNCCSc3nnnn3-c3ccccc3)o2)cc1Cl -0.691%
O=C(Nc1c(C(=O)Nc2cccc(F)c2)oc2ccccc12)c1cc2ccccc2o1 15.9%
COc1cc2[nH]c(=O)n(CCCCCC(=O)NCCc3ccccc3)c(=O)c2cc1OC -2.62%
CCOC(=O)c1cccc(NC(=O)C2CCCN(c3nnc(C)c4c(C)n(-c5ccccc5)nc34)C2)c1 (stereo not given) -4.85%
O=C(Nc1cc(Cl)cc(Cl)c1)c1cc(S(=O)(=O)N2CCc3ccccc3C2)ccc1F -21.6%
COc1ccc(OC)c(C2C(C(=O)Nc3ccccc3OC)=C(C)Nc3c(C(=O)Nc4ccc(F)cc4)cnn32)c1 (stereo not given) 0.135%
COc1ccc(C(=O)Nc2c(C(=O)c3ccccc3)oc3ccccc23)cc1 2.58%
Cn1c(=O)c(=O)n(C)c2cc(N3CCOCC3)c(NS(=O)(=O)c3ccc(F)c(Cl)c3)cc21 -10.2%
COc1ccc(NC(=O)c2cc3cc(C)ccc3n2C)cc1 7.75%
Cc1cccc(-n2ccnc2SCC(=O)Nc2nc3ccccc3s2)c1 4.22%
CCOC(=O)C(=O)Nc1c(C(=O)Nc2cccc(F)c2)oc2ccccc12 10.3%
COc1ccccc1N1CCN(c2nc3c(S(=O)(=O)c4ccc(C)c(C)c4)nnn3c3ccc(Cl)cc23)CC1 3.29%
CCOC(=O)c1ccc(NS(=O)(=O)c2cc(Br)cc3c2N(C(C)=O)C(C)C3)cc1 (stereo not given) -51.9%
CCN(CCCNC(=O)c1nn(-c2ccc(OC)c(Cl)c2)c(=O)c2c1c1ccccc1n2C)c1cccc(C)c1 -17.1%
Cc1cccc(-c2nc(SCC(=O)NCc3ccco3)c3c(=O)n(C)c(=O)n(C)c3n2)c1 1.64%
Cc1ccc(Cn2c(CNS(=O)(=O)c3ccc(Cl)s3)nc3cccnc32)cc1 -5.71%
Cc1cc2[nH]c(=O)c(=O)[nH]c2cc1S(=O)(=O)N1CCN(c2cccc(C)c2C)CC1 -10.9%
CCc1c(C)sc(NC(=O)C2c3ccccc3Oc3ccccc32)c1C(=O)OC(C)C -10.7%
CN(C)c1ccc(C2Nc3ccc4ccccc4c3C3=C2C(=O)CC(C)(C)C3)cc1Br (stereo not given) -15.5%
COc1ccc(CNC(=O)c2cc(-c3ccc(C)c(C)c3)n[nH]2)cc1 24.3%
CCN(C(=O)c1cc(S(=O)(=O)N2CCc3ccccc32)cn1C)c1cccc(C)c1 -31.9%
CC1=C(C(N)=O)C(c2ccc(F)cc2)n2nc(-c3ccc(N(C)C)cc3)nc2N1 (stereo not given) -12.2%
CNS(=O)(=O)c1cn(CC(=O)Nc2ccc(C)c(N(C)C)c2)cc1S(=O)(=O)NC -12.2%
Cc1ccc2c(=O)c(C(=O)c3ccc(F)cc3)cn(CC(=O)NCc3ccccc3Cl)c2n1 -12.5%
Cc1ccc(-c2nn(CC(=O)NC3CCCCC3)c3c2cnc2ccccc23)cc1 -5.84%
Cc1ccc(Cl)cc1N1CCN(C(=O)c2cccn2-c2nnc(N3CCCC3)s2)CC1 -32.4%
Oc1ccc(C(O)CNCCCCCCNCC(O)c2ccc(O)c(O)c2)cc1O (stereo not given) -11.6%
CC(C)(C)OC(=O)N1CCC(c2c(C(=O)NCc3ccc4c(c3)OCO4)cnn2-c2ccccc2Cl)CC1 -9.03%
CC(C)OP(=O)(CP(=O)(OC(C)C)OC(C)C)OC(C)C -2.24%
COc1ccc(C(=O)Nc2nnc(S(=O)(=O)N(CC(C)C)c3ccccc3)s2)cc1 -20.1%
COc1ccc(NC(=O)c2ccc3c(c2)nnn3C2CCCC2)cc1Cl -12.2%
Cc1ccc(Cn2c(C(=O)O)c(CNCc3cccs3)c3ccc(C)cc32)cc1 -32.5%
Cc1ccc(Cl)cc1NC(=O)c1ccc2snnc2c1 -16.5%
COc1cc(NC(=O)NCCn2nnc3cc(S(=O)(=O)N(C)C)ccc32)cc(OC)c1 -1.43%
Cc1ccc(-n2ncc(C(=O)N3CCN(c4ncccn4)CC3)c2C2CCN(C(=O)OC(C)(C)C)CC2)cc1 -2.03%
Cc1cc(C)cc(N2C(=O)CS(=O)(=O)C23C(=O)N(C)c2ccccc23)c1 (stereo not given) -8.43%
Cc1nc(-c2ccc(S(=O)(=O)N(C)Cc3ccccc3)cc2)co1 -6.7%
CCn1c2ccccc2c2nnc(N3CCN(c4ccc(OC)cc4)CC3)nc21 -1.32%
CCOC(=O)Cn1nc(C)c(NC(=O)COc2ccc(C)c(C)c2)c1C -10.5%
CCN(CC)C(=O)CSc1cn(CC(=O)N2CCCCCC2)c2ccccc12 -10.3%
Cc1ccc(NC(=O)C2CCN(c3nc4ccccc4nc3C(F)(F)F)CC2)cc1C 2.63%
CCCN(CCC)S(=O)(=O)c1ccc(N2CCCCS2(=O)=O)cc1 0.129%
CCOc1ccc(-n2cc(-c3ccccc3)c3c(NCc4ccc(F)cc4)ncnc32)cc1 -18.7%
COc1cc2ncnc(Nc3cc(Br)c(O)c(Br)c3)c2cc1OC -32.1%
CCCCCc1ccc(-c2ccc(C(=O)Oc3ccc(C(=O)OC)cc3)cc2)nc1 -22%
COc1ccccc1Nc1c2c(nc3ccc(NC(=O)/C=C/c4cc(OC)c(OC)c(OC)c4)cc13)CCCC2 -94%
COc1ccc(CNc2nc(-c3ccc(Cl)cc3)nn2C(=O)c2ccccc2)cc1 1.28%
CC(C)c1ccc(NC(=O)C2Cc3ccccc3N2C(=O)c2ccccc2)cc1 (stereo not given) -22.4%
COc1ccccc1CNC(=O)c1ccc(CSc2nc3ccncc3n2Cc2ccccc2C)cc1 -22.8%
COc1ccc(C2c3c(n(C)c4ccccc34)C(=O)N2CC(=O)Nc2ccccc2Cl)cc1 (stereo not given) -24.6%
O=C(c1ccc(Nc2nc3ccccc3n3nnnc23)cc1)N1CCN(c2ccc(F)cc2)CC1 -6.93%
COc1cc(NC(=O)c2cc3nc(-c4ccc(C)cc4)cc(C(F)(F)F)n3n2)cc(OC)c1OC -24.8%
CCc1ccc(NC(=O)c2cc(S(=O)(=O)N3CCCCC3)c[nH]2)cc1 -4.03%
Cc1ccc(CNC(=O)c2nnn(Cc3ccc(F)cc3)c2N)cc1 -1.49%
COc1ccc(OCc2ccc(-c3nc(C#N)c(N4CCC(C(N)=O)CC4)o3)o2)cc1 -15.1%
CC(=O)c1cccc(NC(=O)Cn2c(=O)oc3cc(S(=O)(=O)NCc4ccccc4)ccc32)c1 -15.4%
O=S(=O)(Nc1ccc(F)cc1F)c1ccc(Br)s1 -31.3%
CCn1c2c(c(=O)n3ncc(C(=O)Nc4ccc(OC(F)(F)F)cc4)c13)CN(Cc1ccc(OC)cc1)CC2 -11%
Fc1ccc(CNc2ncnc3ccc(F)cc23)cc1 -91.6%
O=S(=O)(N=Cc1c(O)ccc2ccccc12)c1cccs1 29%
Fc1ccc([C@@H]2Nc3ccccc3[C@@H]3C=CC[C@@H]32)cc1 -16.5%
Cc1ccc(C)c(NC(=O)CSc2ncc3c(n2)-c2ccccc2N(Cc2ccccc2C)S3(=O)=O)c1 25%
O=C(Cn1cc(S(=O)(=O)c2ccc(Cl)cc2)c(=O)c2ccccc21)Nc1ccc2c(c1)OCO2 -32.3%
COc1ccc(/C=C/c2nc(C#N)c(N3CCCCCC3)o2)cc1OC -20.4%
COc1ccc(CNS(=O)(=O)c2ccc3c(c2)NC(=O)C(C)C(=O)N3)cc1 (stereo not given) -15.3%
Cc1nnc(N2CCC(C(=O)N3CCCCC3)CC2)c2nn(-c3ccccc3)c(C)c12 -12.4%
Cc1ccc(C)c(S(=O)(=O)Nc2ccc3c(c2)CCCN3C(=O)c2cccs2)c1 -23.6%
COc1ccc(C)cc1NS(=O)(=O)c1ccc(-c2cnc(C3CC3)o2)cc1 -54.4%
COc1ccc(CNc2n[nH]c(-c3ccco3)n2)cc1OC -5.58%
CCc1ccc(Nc2ncnc3sc4c(c23)CCCC4)cc1 -32.9%
COc1cc(NC(=O)Cn2c(=O)n(Cc3ccccc3Cl)c(=O)c3cc(OC)c(OC)cc32)cc(OC)c1 -13.4%
CCCN(C(=O)c1cc2c(=O)n(CC)c3ccccc3c2s1)c1ccccc1F -0.908%
CCCc1c(C(=O)OCC)nnc2c(-c3ccccc3)c(C)nn12 -11.9%
COc1ccc(CCN2C(=O)N(c3ccc(F)cc3)C(=O)C2CC(=O)Nc2ccccc2)cc1OC (stereo not given) 18.4%
O=C(Nc1ccc(F)c(F)c1)c1cc(S(=O)(=O)NCc2ccc3c(c2)OCO3)ccc1F -27.1%
CCOC(=O)c1nn2c(C(F)(F)F)cc(-c3ccc(C)cc3)nc2c1Cl -13.8%
CCCCC(=O)Nc1nnc(SCc2cc(=O)n3cc(C)ccc3n2)s1 3.19%
COc1ccc(-c2c(C#N)c(SCC(=O)Nc3ccc(C)cc3)nc(C)c2C(=O)Nc2ccccc2)cc1 6.94%
Cc1ccc(CNC(=O)CSc2nc(=O)n(Cc3ccco3)c3c2CCC3)cc1 -9.14%
CC(C)(C)NCC(O)c1ccc(O)c(CO)c1 (stereo not given)
COc1ccc(C2=NC3(CCCCCC3)N(CC(=O)Nc3cccc(Cl)c3)C2=O)cc1 -64%
Cc1ccn2c(Nc3ccc4c(c3)OCO4)c(-c3ccc(Cl)cc3)nc2c1 1.53%
